Laboratory results reported in publication PMC7819943, “Rice protein-binding microarrays: a tool to detect cis-acting elements near promoter regions in rice”.
Some of the results follow.

target: T1, OsWOX13 (Oryza sativa, UniProt Q5QMM3 1-267); experiment: protein-binding microarray (RPBM); PBS, 2% BSA, 51.3 ng/ul salmon testes DNA, 50 uM zinc acetate, 200 nM TF, 25 C, 1 h; high values mean tight binding; conditions: protein: recombinant; tags: N-terminal polyhistidine and DsRed monomer fusion (pET32a); label: CyDye5-dUTP incorporated in the synthesized complementary strand; 3' TTTTT single-stranded linker to array surface; dsDNA, one strand shown
T1 sequence: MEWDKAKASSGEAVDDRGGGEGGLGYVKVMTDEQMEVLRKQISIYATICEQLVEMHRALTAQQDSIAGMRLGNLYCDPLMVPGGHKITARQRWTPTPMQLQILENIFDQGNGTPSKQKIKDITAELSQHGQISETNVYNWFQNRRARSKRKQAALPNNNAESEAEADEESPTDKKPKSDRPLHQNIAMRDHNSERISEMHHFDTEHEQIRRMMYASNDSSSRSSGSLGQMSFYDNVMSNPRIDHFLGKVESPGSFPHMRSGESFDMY
In short: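 Transcription factors, each fused N-terminally to a polyhistidine tag and DsRed, were expressed in E. coli BL21-CodonPlus and purified on Ni–NTA. A custom Agilent array was made double-stranded by primer extension with Cy5-dUTP and blocked with 2% BSA. It was incubated with 200 nM protein in PBS, 2% BSA, salmon testes DNA and 50 µM zinc acetate at 25 °C for 1 h, then washed. The binding signal is per-feature fluorescence intensity (arbitrary units) read on an Axon 4000B scanner.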

Sequence	binding signal
ATTAACACTAATTTACATCATTCTCAGCCTGTTTTCACTTCGGAGTCACCTAGTGCAG	19400 fluorescence intensity (a.u.)
AAATCAATCTTGTCAAGTGATTGCATCAGGCTTATTTTCCCGGAGTCACCTAGTGCAG	26700 fluorescence intensity (a.u.)
GACAAGTAATTATCACTTTAAATGTTTGAACTGAAATTTACGGAGTCACCTAGTGCAG	10800 fluorescence intensity (a.u.)
CATCCAATCAATAGGTAATAGAGACAGAATCCCTACTCCACGGAGTCACCTAGTGCAG	30300 fluorescence intensity (a.u.)
TAATATTGTAAATTTCTTGATTATCCAACTATTAGCACAGCGGAGTCACCTAGTGCAG	5360 fluorescence intensity (a.u.)
ACCTGCATTAATATCACTAATCAGTACAATTAGTTAGGAGCGGAGTCACCTAGTGCAG	5650 fluorescence intensity (a.u.)
GACAGTAGATAGATCATAGATTAATGGATGATTTTGCGTACGGAGTCACCTAGTGCAG	11000 fluorescence intensity (a.u.)
TATATATATATATATATATATAGACACACACACGCCAATCCGGAGTCACCTAGTGCAG	27500 fluorescence intensity (a.u.)
AAAACTTTACATTATGTAATTAATTAAAATATTTGGTATTCGGAGTCACCTAGTGCAG	13800 fluorescence intensity (a.u.)
CTCAAATCTTTGATAGATGGCTTATTTGTATTGACTGGAACGGAGTCACCTAGTGCAG	11700 fluorescence intensity (a.u.)
ACTGACTGCTACGTCTCTGTCTACGTATACCCCAGCCTCCCGGAGTCACCTAGTGCAG	15100 fluorescence intensity (a.u.)
TCATAATTGGATGGCATTGTACTGTGATTTGTTTGTGTTGCGGAGTCACCTAGTGCAG	49200 fluorescence intensity (a.u.)
GCTGACAATTAAGCGTCAAAATGAACGTGCGTTGGTGTGTCGGAGTCACCTAGTGCAG	6910 fluorescence intensity (a.u.)
GTATATACATATAATTGTAATATTACATATGTCACTTTATCGGAGTCACCTAGTGCAG	3330 fluorescence intensity (a.u.)
TTGCTTAATTTTGGTGAATGTCATCCAGGTGAGGATGCCCCGGAGTCACCTAGTGCAG	11200 fluorescence intensity (a.u.)
CAAAATAATATAATTTATAATCTATTTAAGCTCGATTGTGCGGAGTCACCTAGTGCAG	25800 fluorescence intensity (a.u.)
GTGAATGCATGCATGATTGATTGATCTTTTCTTTTGCGTCCGGAGTCACCTAGTGCAG	46300 fluorescence intensity (a.u.)
CAATATTCTTTGACAGCTTCGATTGACATCTCACCTTATGCGGAGTCACCTAGTGCAG	9220 fluorescence intensity (a.u.)
TTTTAATTAGGTAAGATAAGATGTGATGTGCACTTTAACTCGGAGTCACCTAGTGCAG	12800 fluorescence intensity (a.u.)
TTAAAATTAAATAACAACCATTTTCAATAGGAAAACGGTGCGGAGTCACCTAGTGCAG	6340 fluorescence intensity (a.u.)
ACATAAATTTGAGATGTTATTGTAGAATTCAAAACTGTGACGGAGTCACCTAGTGCAG	5820 fluorescence intensity (a.u.)

Sequence	binding signal
CGTGGTACAGTCAAATCACCTTTGACGATTGACTAGAAATCGGAGTCACCTAGTGCAG	9670 fluorescence intensity (a.u.)
ACGTGGGGAGGCTGCCTGCCGCGCGGTGAAGCTTCGGTCACGGAGTCACCTAGTGCAG	21600 fluorescence intensity (a.u.)
TACAAATTGACTACTAATTTCTCTAGTGGTGTATATTTATCGGAGTCACCTAGTGCAG	33200 fluorescence intensity (a.u.)
TGTGATTATAAAATTTTATGCACGACATTACTACATTTCCCGGAGTCACCTAGTGCAG	36400 fluorescence intensity (a.u.)
AATTAACTAGCTCGACTAATTAATAACGAAGTGATAGAGACGGAGTCACCTAGTGCAG	17500 fluorescence intensity (a.u.)
AGACAATCTTCTTGACTGATTTTCAATGTGGTAGATACATCGGAGTCACCTAGTGCAG	12400 fluorescence intensity (a.u.)
CATGATGGGCTTATTGGGCTGGATCAGATCGGATGTCCAGCGGAGTCACCTAGTGCAG	10500 fluorescence intensity (a.u.)
TTCTGATTGAGTTTATCAGGGCCAACTGCCAAACGGTCAGCGGAGTCACCTAGTGCAG	38600 fluorescence intensity (a.u.)
AAAATCAAGATTGATGTGGTTTCACCCCAACACAAGAAAACGGAGTCACCTAGTGCAG	8050 fluorescence intensity (a.u.)
TCTACTAATTTAAAGTTGCAGTGTTCCTCCTCCCTCCTACCGGAGTCACCTAGTGCAG	10700 fluorescence intensity (a.u.)
TATCAATCACAATAATCCAATCAACTTCCCAACCGAAATGCGGAGTCACCTAGTGCAG	37500 fluorescence intensity (a.u.)
ATTACATACTAATTACATATGTAAGTGAGGTGTAACTACTCGGAGTCACCTAGTGCAG	5970 fluorescence intensity (a.u.)
GGCGCTGCTTCGTGATTGCTTGTCTCGTGTCTGAATCACTCGGAGTCACCTAGTGCAG	7190 fluorescence intensity (a.u.)
TCCTTAACTGACAATGGCAAGATGGAAAATCCTATGCATGCGGAGTCACCTAGTGCAG	35100 fluorescence intensity (a.u.)
TGATATGCATTAATTGACTTTTGCGTCAATATGACAAGCTCGGAGTCACCTAGTGCAG	23800 fluorescence intensity (a.u.)
AATTATTTAATTATAATTTATTTATTTATCATCAAATTTTCGGAGTCACCTAGTGCAG	13700 fluorescence intensity (a.u.)
AGTAATGTCATTGGCCTATCATATTCTGACTATGTTTTATCGGAGTCACCTAGTGCAG	3710 fluorescence intensity (a.u.)
GAAGAATTGATACAGGATCGTCGTTTCTTTGCCAGCTGCGCGGAGTCACCTAGTGCAG	6260 fluorescence intensity (a.u.)
CATTCTTAATAGATAATTTGTTTTATATCCCTCACCGTACCGGAGTCACCTAGTGCAG	14900 fluorescence intensity (a.u.)
CACGTTGTACATCAATCAACCATCTTGTAGCAGCTACACGCGGAGTCACCTAGTGCAG	12800 fluorescence intensity (a.u.)
ACATAAATTTATAATTCAAATTTTCTCAGGAAAATGGCAACGGAGTCACCTAGTGCAG	16600 fluorescence intensity (a.u.)
